# Reference: article PMC12040169 (PLOS Biology, 2025)
# This is one part of the list.
# Test system: T1, C. trachomatis L2/434/Bu expressing GFP (CTL2-GFP)
# T1 construct: L2/434/Bu GFP intracellular growth in HeLa cells
# Parameters: species or system HeLa; C. trachomatis total inclusion area by high-content imaging, normalised to DMSO
# Settings: total inclusion area; 28.5 h, 10 µM; inhibitor
# Procedure, shortened: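 High-content imaging followed the bulk GFP/resorufin measurement: fixed, Hoechst-stained cells were scored for GFP inclusions and host nuclei per well. Total inclusion area and count served as growth proxies, nuclei number as the viability proxy. MIC calculation matched the bulk assay.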
row,Structure (SMILES),% of control remaining
1,CC(NS(=O)(=O)c1ccccc1Cl)C(=O)N1CCCCC1C (centres unmarked) [CBK305797],52.0537
2,COc1cc(F)ccc1S(=O)(=O)NC1CC(C)(C)NC(C)(C)C1 [CBK266428],94.2991
3,Cc1nnc(CN(C)C2CCN(CCCc3ccccc3)C2)n1C (centres unmarked) [CBK304000],81.322
4,O=C(CSc1nnc(-c2cccnc2)o1)c1ccccc1 [CBK068446],2.65
5,C=CCNC(=O)[C@H]1C=CCN1C(=O)Nc1ccccc1Cl [CBK282348],73.5236
6,COc1ccc(-c2noc(CNC(=O)Cc3ccc(-c4ccccc4)cc3)n2)cc1 [CBK269272],107.372
7,O=C(CN(Cc1ccc(F)cc1)S(=O)(=O)c1ccc(Cl)cc1)Nc1ccc2c(c1)OCCO2 [CBK265346],85.1936
8,CC(=O)N[C@H]1CO[C@H]2[C@@H]1OC[C@@H]2n1nnnc1Oc1ccc(-n2ccnc2)cc1 [CBK289487],87.1383
9,O=C(O)C1CCN(C(=O)CCn2ccc3cc(Br)ccc32)CC1 [CBK286617],104.943
10,Cc1cccc2c1CC(=O)NC21CCN(Cc2ccccc2)CC1 [CBK039819],99.9934
11,COC(=O)C1(Cc2ccccc2)CN(C(=O)OC(C)(C)C)CCC1=O (centres unmarked) [CBK003486],105.11
12,CCN1CCN(C(=O)CN(Cc2ccc(F)cc2)S(=O)(=O)c2ccccc2)CC1 [CBK266612],97.0213
13,CSc1nnc(-c2ccc(C(C)(C)C)cc2)n1Cc1ccco1 [CBK017071],88.4057
14,O=C(Nc1nnc(SCc2cc(=O)n3nc[nH]c3n2)s1)c1ccc(F)cc1 [CBK294399],119.411
15,COc1ccc2nc(N3CCc4ccccc4C3)sc2c1 [CBK287493],108.601
16,Cc1ccc(SCS(=O)(=O)c2ccc(C)cc2)cc1 [CBK026853],45.0893
17,Cc1cc(-c2cn3ccnc3c(N3CCOCC3)n2)cc(C)c1O [CBK066691],130.454
18,Cc1ccnc(SCC(N)=O)n1 [CBK028874],59.5738
19,CCN1CCCC1Cn1c(=S)[nH]c2ccccc2c1=O (centres unmarked) [CBK267849],120.742
20,O=C(c1cccc([N+](=O)[O-])c1)c1ccc2c(c1)C(=O)N(Cc1cccnc1)C2=O [CBK262784],115.359
21,O=C1CC(N2CCN(c3ccc(S(=O)(=O)N4CCOCC4)cc3)CC2)C(=O)N1Cc1ccccc1 (centres unmarked) [CBK268713],95.1036
22,COCCCNC(=O)COc1cc(C)ccc1C [CBK264625],91.6793
23,CC(=O)Nc1nc2[nH]c(C)c(Cc3ccccc3)c(=O)n2n1 [CBK288202],95.4357
24,CC(=O)NC1(c2ccc(F)cc2)CCN(Cc2cccnc2)CC1 [CBK283610],93.235
25,CCn1c(=O)n(CC(=O)N2CCc3ccccc32)c2cccnc21 [CBK283826],108.137
26,C[S+]([O-])CCNC(=O)c1cnn(-c2ccc(F)cc2)c1 (centres unmarked) [CBK283245],76.2774
27,O=C([C@@H]1C[C@@H](O)[C@H](O)[C@@H]2NC(=S)N(c3ccc4c(c3)OCO4)[C@@H]21)N1CCCCC1 [CBK288945],101.582

row,Structure (SMILES),% of control remaining
1,COc1ccc([C@@]23CC[C@@H](NC(=O)c4ccc(C(F)(F)F)c(F)c4)C[C@@H]2CN(C)C3)cc1OC [CBK082742C],89.8223
2,CC(=O)NC[C@H]1CN(c2ccc3c(c2)CCN(C(C)=O)CC3)C(=O)O1 [CBK018491],2.743
3,CCC(C)Nc1nc(SCC(=O)OC)nc(N(C)C)n1 (centres unmarked) [CBK269780],65.6865
4,COc1ccc2cc(C(=O)N3CCn4cncc4C3)n(C)c2c1 [CBK304362],52.9987
5,CCC(CO)NCc1ccc(-c2ccccc2)cc1 (centres unmarked) [CBK268082C],95.2639
6,CN(C)C(CNCc1cn(C)nc1-c1cccnc1)c1ccccc1 (centres unmarked) [CBK304511],56.8761
7,COc1ccc(CN2CCCN(C(=O)c3ccc(F)cc3Br)CC2)cc1 [CBK251752],71.4332
8,Cc1cccc(C)c1NC(=O)CN1CCC(Oc2cncc(OCc3cccnc3)n2)C1 (centres unmarked) [CBK084460],81.6888
9,COC(=O)[C@H]1CN(C(=O)c2ccco2)C[C@@H]1c1ccc(F)cc1 [CBK283733],92.7721
10,O=C(NC(=S)Nc1cccc(-c2nc3ncccc3o2)c1)c1cc([N+](=O)[O-])ccc1N1CCOCC1 [CBK268756],89.992
11,N#Cc1ccc(Oc2ccc(C(=O)C(=O)c3ccccc3)cc2)cc1C#N [CBK260959],88.8469
12,CCOC(=O)c1c(-c2ccc(C)o2)csc1NC(=O)CN1C(=O)c2ccccc2C1=O [CBK267699],90.25
13,Cc1c(Nc2nc3nonc3nc2Nc2cccc(Cl)c2)c(=O)n(-c2ccccc2)n1C [CBK263073],82.0514
14,COC(=O)CCc1ccc(S(=O)(=O)N2CCN(Cc3cc(C)c(O)c(C)c3)CC2)cc1 [CBK062814],108.331
15,CCN(CC)C(=O)c1sccc1NS(=O)(=O)c1cc(Br)c(Cl)s1 [CBK004599],67.1422
16,CC(O)CNCCNc1c(Cl)cccc1[N+](=O)[O-] (centres unmarked) [CBK262802C],104.685
17,CC(C(=O)N1CCC(O)(c2ccccn2)CC1)c1ccccc1 (centres unmarked) [CBK282396],121.962
18,CCCCCn1c(Cc2ccccc2)n[nH]c1=O [CBK013059],75.1263
19,CCCCOc1ccc(-c2nnn(CC(=O)Nc3ccccc3)n2)cc1 [CBK070609],95.3207
20,COc1ccc(Br)cc1C1CC(=O)Nc2c(-c3cccc(F)c3)csc21 (centres unmarked) [CBK294442],23.1085
21,COc1ccc(-n2c(Cc3ccccc3)nnc2SCC(=O)c2ccccc2)cc1 [CBK265989],69.0548
22,O=C(CSCc1ccccc1Br)Nc1ccccc1-c1ccccc1 [CBK265959],104.647
23,CCN(CC)C(=O)[C@@H](C)C1CC[C@@]2(C)CC[C@H](NC(=O)C3CC3)[C@@H](C)[C@@H]2[C@H]1O (some centres unmarked) [CBK289443],109.417
24,COc1ccc(C(=O)N2CCN(c3nc4c(s3)c(C)nn4C)CC2)cc1 [CBK307457],62.4272
25,CCCC/C=C/c1cncc(N[C@@H](C)c2ccccc2)n1 [CBK065472],89.4697
26,CC(C)NC(=O)c1sc2ccccc2c1C1CN(Cc2cccc3ncccc23)CCO1 (centres unmarked) [CBK285879],94.5746
27,C=C(C)CN1CCN(C(=O)c2c(C)oc3ccc(O)cc23)CC1 [CBK282626],96.918

row,Structure (SMILES),% of control remaining
1,Cc1ccc(CN(CCN(C)C)Cc2c(C)nc3sccn23)o1 [CBK283229],103.016
2,CC1CCC(C(N)=O)CN1c1cc(=O)n2ccccc2n1 (centres unmarked) [CBK304835],96.9735
3,O=C(O)C1CCCN1C(=O)NCc1c(Cl)cccc1Cl (centres unmarked) [CBK161383],41.4761
4,CN1C(=O)CN(C2CCCCC2)C1=O [CBK116320],119.744
5,O=C(C1=C(O)C(=O)N(CCCN2CCOCC2)C1c1cccnc1)c1cccs1 (centres unmarked) [CBK264555],116.619
6,COc1ccc(CCC(=O)N2CCCC2c2cc(Nc3nccs3)cc(C)n2)cc1 (centres unmarked) [CBK285939],96.7236
7,O=C(Nc1nc(-c2ccccc2)cs1)c1ccc(Br)cc1 [CBK068003],119.121
8,CN(C(=O)c1ccc(-n2nncc2-c2ccccc2)cc1)c1ccccc1 [CBK288107],93.9616
9,CCS(=O)(=O)Nc1cc(Cl)ccc1C [CBK111350],106.443
10,Cc1ncc2c(n1)[C@@H]1CN(C(=O)Cc3cccs3)C[C@@H]1CC2 [CBK284491],103.789
11,COc1ccc(N2CCN(Cc3cc([N+](=O)[O-])ccc3Cl)CC2)cc1 [CBK261571],99.5782
12,CCOC(=O)c1csc(C2CCCN2C(=O)CCc2ccccc2O)n1 (centres unmarked) [CBK305448],101.597
13,O=C(O)CCCCCN1C(=O)C2CC=CCC2C1=O (centres unmarked) [CBK286534],91.9244
14,CC(=O)Nc1cccc(Oc2nccnc2/C=C/c2ccccc2)c1 [CBK106881],104.203
15,Cc1ccc(-c2nnc3ccc(SCC(=O)NC4CCCC4)nn23)cc1 [CBK287523],106.583
16,CC(C)S(=O)(=O)n1ccn(-c2ccc3c(c2)OCO3)c1=O [CBK106630],94.4237
17,CCC(=O)Nc1ccccc1C(=O)C(=O)O [CBK219398],100.365
18,Cc1c(OCCC2CCCCN2C)ccc2c(=O)cc(N3CCOCC3)oc12 (centres unmarked) [CBK016644],137.762
19,Cc1ccccc1NC(=O)CC1c2ccccc2CC(C)(C)N1C (centres unmarked) [CBK262567],101.377
20,CCCn1nc(C)c(CN(C)Cc2n[nH]c3c2CCCC3)c1C [CBK282600],105.168
21,O=C(CSc1nc2ccccc2o1)N1c2ccccc2Sc2ccccc21 [CBK221524],74.9715
22,O=C(C1C2CCCCC21)N1CCC(Oc2ccc(F)cc2)CC1 (centres unmarked) [CBK282065],72.1037
23,NC(=O)c1c(NC(=O)COc2ccccc2[N+](=O)[O-])sc2c1CCC2 [CBK262819],90.0909
24,COc1ccc(CCCC(=O)N2CCN(c3ccccc3OC)CC2)cc1OC [CBK091495],98.1227
25,COc1ccc(-c2cc(C(=O)Nc3nc4c(OC)cccc4s3)cnc2-c2ccccc2)cn1 [CBK036681],68.4228
26,Nc1ncc(-c2cccc3ccccc23)nc1Nc1ccc2[nH]ccc2c1 [CBK063659],120.539
